From PubChem BioAssay AID1347073 (National Center for Advancing Translational Sciences (NCATS), 2019) come the findings set out here.

About 200 (0.44%) of roughly 45,000 compounds were called active. About 7% were inconclusive and are not listed. Calls come from the whole dose curve; as a rule, active = well fitted activation curve with a large enough effect; inconclusive = small, poorly fitted or top-dose-only effect; inactive = no such curve, though single readings can be large or run the other way. The list shows a part of the results.

The experiment in a line: qHTS of TDP-43 Inhibitors: NCGC Sytravon Library Screen. Note: 0% is about no effect; nearly all actives have a fitted effect of over 55% in size. The following applies: yeast TDP-43 toxicity rescue, BacTiter-Glo growth, 24 h; series mostly up to 46.1 µM; growth rescue (activation): at the top concentration. The method, boiled down: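 TDP-43-expressing yeast, pregrown in raffinose, seeded at OD600 0.02 in galactose medium with compound for 24 hr at 30 deg C. Growth read by BacTiter-Glo luminescence, so rescue of toxicity appears as activation.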
(Quantitative high-throughput screening tests each substance at several concentrations.)
For the compound `COc1ccc(Nc2nccc(N(C)C)c2C#N)cc1`, the “growth rescue (activation)” value was inactive: 5.17%.
Regarding `Cc1ccc(C(=O)c2no[n+]([O-])c2C(=O)c2ccc(C)cc2)cc1`, the “growth rescue (activation)” value is inactive: -93.9%.
Take `COc1ccc(C(=O)NCC(=O)N2CCN(c3ccc(F)cc3)CC2)cc1`: the “growth rescue (activation)” value is inactive: 9.61%.
In the case of `CC1(C(=O)NCc2ccco2)Cc2c(-c3cccc(C(N)=O)c3)ccnc2O1` (stereo not given) it was inactive: 4.92%.
In the case of `CN1CCCN(C(=O)c2cc(-c3cccc4ccccc34)nc3ccccc23)CC1` it was inactive: -2.78%; in that of `CCOC(=O)C1CCN(C(=S)Nc2ccc(Cl)cc2C)CC1`, inactive: 16.2%.
In the case of `CCOC(=O)C1CCN(C(=O)N(CC)CC)CC1` it was inactive: 15.9%; in that of `COc1ccc(CCC(=O)Nc2ccc(S(=O)(=O)Nc3nccc(C)n3)cc2)cc1`, inactive: 12.8%.
Regarding `Cc1cc(Cl)ccc1OCC(=O)OCC(=O)Nc1ccc(F)c([N+](=O)[O-])c1`, the “growth rescue (activation)” value is inactive: -13.9%.
To `CCn1c(SCC(=O)NNC(=O)c2ccc(C)cc2)nnc1C1CC1` belongs inactive: -4.44%; to `O=C1C2C(c3ccccc3)=NN(c3ccccc3)C2C(=O)N1c1ccccc1` (stereo not given), inactive: 15.1%; to `COc1cccc(CNC(=O)c2ccc(N3CCOCC3)c([N+](=O)[O-])c2)c1`, inactive: 11.3%.
Turning to `Cc1nc(C(=O)N(C)C)nn1-c1ccc([N+](=O)[O-])cc1`, the “growth rescue (activation)” value is inactive: 6.8%.
To `CSCCC(=O)Nc1cc(S(=O)(=O)N2CCOCC2)ccc1N1CCN(C)CC1` belongs inactive: -10.8%; to `CCN1CCN(C(=O)C2CCCN(S(=O)(=O)c3ccc(OC)c(OC)c3)C2)CC1` (stereo not given), inactive: 5.23%; to `CC(C)(C)NC(=O)COC(=O)c1ccc(F)cc1Cl`, inactive: -1.07%.
In the case of `Cc1ccc(NC(=O)Cn2cnc([N+](=O)[O-])c2)cc1C` it was inactive: -10.8%; in that of `Cc1ccccc1NCC(=O)N/N=C/c1c(C)c(C(=O)c2ccc(Cl)cc2)n2ccccc12`, inactive: 15.8%; in that of `CN(Cc1ccccn1)Cc1nc(COc2ccccc2)no1`, inactive: 11%.
For `CCOC(=O)c1ccc(NC(=O)Cn2nnc(-c3ccccc3F)n2)cc1`, the “growth rescue (activation)” value was inactive: 27%.
As to `CCCc1nc2ccccc2n1CC(O)COc1ccc(C(=O)OC)cc1` (stereo not given), the “growth rescue (activation)” value was inactive: 0.23%.
To `Cc1c(C(=O)NC2CCCCC2)oc2ccc(F)cc12` belongs inactive: 5.49%.
With `COCCCN1C(=O)c2ccccc2CC1(C)C(=O)NC1CCCCC1` (stereo not given), the “growth rescue (activation)” value was inactive: -6.75%.
As for `CC(NC(=O)COC(=O)CCc1nc(=O)c2ccccc2n1C)c1ccccc1` (stereo not given), the “growth rescue (activation)” value is inactive: 13.9%.
Regarding `Cc1ccc(C2=NN(CC(=O)NCc3ccccn3)C(=O)CC2)cc1`, the “growth rescue (activation)” value was inactive: 0.104%.
In the case of `COc1ccccc1NC(=O)CCc1nc(-c2cccs2)no1` it was inactive: 44.1%; in that of `COc1ccc(NS(=O)(=O)c2ccc(C(=O)Nc3c(C)n(C)n(-c4ccccc4)c3=O)cc2)cc1`, inactive: -77.2%.
To `O=[N+]([O-])c1cccc(-c2nnc3cccc(Cl)n23)c1` belongs inactive: 23.2%; to `Cc1ccc(S(=O)(=O)N(C)C)cc1NC(=S)N1CCCCC1CO` (stereo not given), inactive: 3.96%; to `Cc1ccc(-n2nnnc2SCC(=O)NCC2(N3CCOCC3)CCCCC2)cc1`, inactive: 6.64%.
